{
  "source": "the BET-seq Pho4 binding data (Le et al. 2018)",
  "note": "This is one part of the list. These are noisy estimates, calculated here from bound and input reads.",
  "data": [
    {"biological_target": "T1, Pho4 (S. cerevisiae) (UniProt P07270)", "T1 sequence": "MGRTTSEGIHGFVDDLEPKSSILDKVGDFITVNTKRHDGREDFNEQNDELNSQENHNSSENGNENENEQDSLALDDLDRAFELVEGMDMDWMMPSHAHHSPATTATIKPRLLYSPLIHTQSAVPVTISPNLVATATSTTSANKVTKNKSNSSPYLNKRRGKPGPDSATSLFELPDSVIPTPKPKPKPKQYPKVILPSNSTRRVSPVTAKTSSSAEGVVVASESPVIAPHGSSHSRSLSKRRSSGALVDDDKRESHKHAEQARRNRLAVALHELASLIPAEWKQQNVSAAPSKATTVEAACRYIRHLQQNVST", "experiment": "relative binding free energy (BET-seq); higher = weaker binding", "conditions": "reference: library average", "units": {"relative binding free energy": "kcal/mol"}, "values": [
      {"sequence": "GTGTCCACGTGTAGAG", "relative binding free energy": 0.08},
      {"sequence": "GAGATCACGTGTTGGG", "relative binding free energy": 0.25},
      {"sequence": "CATCGCACGTGGGCGG", "relative binding free energy": -0.12},
      {"sequence": "GGCTGCACGTGGTGGG", "relative binding free energy": -0.1},
      {"sequence": "TGGGACACGTGGAGTA", "relative binding free energy": 0.02},
      {"sequence": "AGGTGCACGTGCTAGT", "relative binding free energy": -0.06},
      {"sequence": "TTGTACACGTGGAGAG", "relative binding free energy": 0.02},
      {"sequence": "TAGGTCACGTGGAGGC", "relative binding free energy": 0.1},
      {"sequence": "ACTATCACGTGTGGTG", "relative binding free energy": 0.21},
      {"sequence": "ATGTACACGTGTGAGT", "relative binding free energy": 0.2},
      {"sequence": "AATGGCACGTGGACTG", "relative binding free energy": 0.03},
      {"sequence": "GGGGTCACGTGTATAT", "relative binding free energy": 0.24},
      {"sequence": "ATGGGCACGTGACTTG", "relative binding free energy": -0.03},
      {"sequence": "AGGAACACGTGGTGTT", "relative binding free energy": -0.09},
      {"sequence": "CGAAGCACGTGCGGGG", "relative binding free energy": -0.14},
      {"sequence": "GCCTTCACGTGGGGGG", "relative binding free energy": 0.06},
      {"sequence": "TGGTGCACGTGAGTTG", "relative binding free energy": 0.31},
      {"sequence": "TTTATCACGTGGACGT", "relative binding free energy": 0.21},
      {"sequence": "GTCTGCACGTGTTTAT", "relative binding free energy": 0.07},
      {"sequence": "CTTTTCACGTGATCGT", "relative binding free energy": 0.15},
      {"sequence": "TCCGGCACGTGGGTTT", "relative binding free energy": -0.22},
      {"sequence": "GGGATCACGTGTGCAG", "relative binding free energy": 0.11},
      {"sequence": "AGTGGCACGTGGGCCA", "relative binding free energy": -0.18},
      {"sequence": "AGGATCACGTGGTTGA", "relative binding free energy": 0.11},
      {"sequence": "TGGGACACGTGGGGTT", "relative binding free energy": -0.02},
      {"sequence": "TGTCTCACGTGGGGTC", "relative binding free energy": 0.06},
      {"sequence": "AAGTCCACGTGTGGGG", "relative binding free energy": 0.06},
      {"sequence": "TCGGTCACGTGGGTAG", "relative binding free energy": 0.06},
      {"sequence": "GTATTCACGTGGAACG", "relative binding free energy": 0.39},
      {"sequence": "ATTGGCACGTGGTATA", "relative binding free energy": -0.27},
      {"sequence": "TATACCACGTGATGGT", "relative binding free energy": 0.14},
      {"sequence": "ATTTTCACGTGAGGTG", "relative binding free energy": 0.38},
      {"sequence": "TGTGACACGTGAAGAG", "relative binding free energy": 0.17},
      {"sequence": "GGGTCCACGTGGTATA", "relative binding free energy": -0.03},
      {"sequence": "TAGGGCACGTGGGAGC", "relative binding free energy": -0.18},
      {"sequence": "CGTGTCACGTGGTCGT", "relative binding free energy": -0.02},
      {"sequence": "TCGGGCACGTGGGGTG", "relative binding free energy": -0.27},
      {"sequence": "AAAGCCACGTGGGGGT", "relative binding free energy": -0.18},
      {"sequence": "AATGGCACGTGAAAGG", "relative binding free energy": 0.21},
      {"sequence": "ATAGGCACGTGCGCGG", "relative binding free energy": -0.28},
      {"sequence": "TAATACACGTGTTGAG", "relative binding free energy": 0.05},
      {"sequence": "TTCGACACGTGTCTTG", "relative binding free energy": 0.19},
      {"sequence": "CTGGACACGTGAGTTA", "relative binding free energy": 0.19},
      {"sequence": "TATCGCACGTGGAGAG", "relative binding free energy": -0.04},
      {"sequence": "TTAGCCACGTGGGGCT", "relative binding free energy": -0.25},
      {"sequence": "GGGAGCACGTGAAAGT", "relative binding free energy": 0.28},
      {"sequence": "CTTGGCACGTGAGTAT", "relative binding free energy": 0.17},
      {"sequence": "TTTATCACGTGCTGGG", "relative binding free energy": 0.18},
      {"sequence": "GATTTCACGTGGGATC", "relative binding free energy": 0.33},
      {"sequence": "TTAAGCACGTGAAATT", "relative binding free energy": 0.25},
      {"sequence": "TCATGCACGTGCGGGG", "relative binding free energy": -0.06},
      {"sequence": "TGTATCACGTGGGCTT", "relative binding free energy": 0.06},
      {"sequence": "TCGTACACGTGTGTTT", "relative binding free energy": 0.07},
      {"sequence": "TTGAACACGTGGGCTT", "relative binding free energy": 0.03},
      {"sequence": "TGCGTCACGTGAATAT", "relative binding free energy": 0.23},
      {"sequence": "GGGGGCACGTGCAGTA", "relative binding free energy": -0.11},
      {"sequence": "ATAGGCACGTGTTCTG", "relative binding free energy": -0.19},
      {"sequence": "GTCTGCACGTGGTTAA", "relative binding free energy": -0.02},
      {"sequence": "GGGTTCACGTGAAGTA", "relative binding free energy": 0.43},
      {"sequence": "GGGGTCACGTGTGGCA", "relative binding free energy": 0.22},
      {"sequence": "TTAGGCACGTGATAGG", "relative binding free energy": -0.04},
      {"sequence": "GTGGTCACGTGTCTCT", "relative binding free energy": 0.14},
      {"sequence": "AATAGCACGTGTATGT", "relative binding free energy": -0.16},
      {"sequence": "TCTGACACGTGTTGGT", "relative binding free energy": 0.02},
      {"sequence": "GTAATCACGTGGTAAG", "relative binding free energy": 0.16},
      {"sequence": "TGTCACACGTGGGGTA", "relative binding free energy": -0.13},
      {"sequence": "AGGCACACGTGCGTGG", "relative binding free energy": -0.04},
      {"sequence": "ATACGCACGTGGATGG", "relative binding free energy": -0.16},
      {"sequence": "GAGCTCACGTGGGGTA", "relative binding free energy": -0.03},
      {"sequence": "AGGGTCACGTGATCGG", "relative binding free energy": 0.14},
      {"sequence": "GGGTGCACGTGCGTTG", "relative binding free energy": -0.06},
      {"sequence": "GTAGGCACGTGTGGCG", "relative binding free energy": -0.18},
      {"sequence": "GGGGTCACGTGGAGAG", "relative binding free energy": 0.27},
      {"sequence": "ATGGTCACGTGTCGAT", "relative binding free energy": 0.14},
      {"sequence": "ATTTACACGTGATATA", "relative binding free energy": 0.12},
      {"sequence": "GGTAGCACGTGGTTCT", "relative binding free energy": 0.05},
      {"sequence": "AGTAGCACGTGCGTCG", "relative binding free energy": -0.05},
      {"sequence": "GCAAGCACGTGGTTGT", "relative binding free energy": -0.18},
      {"sequence": "CGCTTCACGTGTAGGG", "relative binding free energy": 0.22},
      {"sequence": "GTCGTCACGTGTGAGT", "relative binding free energy": 0.23},
      {"sequence": "ATGGTCACGTGATTAA", "relative binding free energy": 0.21},
      {"sequence": "GTAGGCACGTGGCTTG", "relative binding free energy": -0.22},
      {"sequence": "TTATGCACGTGTCTAG", "relative binding free energy": -0.03},
      {"sequence": "AGAAACACGTGTCGTG", "relative binding free energy": 0.07},
      {"sequence": "TCCGGCACGTGGCGGT", "relative binding free energy": 0.05},
      {"sequence": "ATAGGCACGTGTTTTG", "relative binding free energy": -0.22},
      {"sequence": "GGTGCCACGTGCTTGG", "relative binding free energy": -0.23},
      {"sequence": "TTCGGCACGTGGAATG", "relative binding free energy": -0.07},
      {"sequence": "CTTAGCACGTGGGGTT", "relative binding free energy": -0.23},
      {"sequence": "TATTACACGTGAGTTG", "relative binding free energy": 0.27},
      {"sequence": "ATCGTCACGTGGGGTT", "relative binding free energy": 0.03},
      {"sequence": "ATTTGCACGTGTGCTG", "relative binding free energy": 0.05},
      {"sequence": "CGTATCACGTGATGTT", "relative binding free energy": 0.06},
      {"sequence": "TATTTCACGTGATATT", "relative binding free energy": 0.14},
      {"sequence": "CTAGGCACGTGTAGGA", "relative binding free energy": 0},
      {"sequence": "ATGATCACGTGATGAG", "relative binding free energy": 0.3},
      {"sequence": "TTGTGCACGTGCCGTG", "relative binding free energy": -0.16},
      {"sequence": "CGGGGCACGTGATTGG", "relative binding free energy": -0.09},
      {"sequence": "TTTGTCACGTGGAAAC", "relative binding free energy": 0.3},
      {"sequence": "GGGAACACGTGAGTGG", "relative binding free energy": 0.11},
      {"sequence": "GGATGCACGTGGATAT", "relative binding free energy": 0.14},
      {"sequence": "ATTCGCACGTGGGGTA", "relative binding free energy": -0.28},
      {"sequence": "TTGTACACGTGAGAGT", "relative binding free energy": 0.3},
      {"sequence": "AAGGTCACGTGATTTG", "relative binding free energy": 0.2},
      {"sequence": "CTGTGCACGTGTGGAG", "relative binding free energy": -0.08},
      {"sequence": "TCTTTCACGTGGACGT", "relative binding free energy": 0.39},
      {"sequence": "AGCTTCACGTGTGTGG", "relative binding free energy": 0.18},
      {"sequence": "ATGGCCACGTGAGTTA", "relative binding free energy": 0.09},
      {"sequence": "TGGGGCACGTGTGTAC", "relative binding free energy": -0.1},
      {"sequence": "ATGTACACGTGTTCTT", "relative binding free energy": 0.22},
      {"sequence": "TAGGGCACGTGGGCGG", "relative binding free energy": -0.2},
      {"sequence": "GTCTTCACGTGCAGGT", "relative binding free energy": 0.19},
      {"sequence": "GGATCCACGTGGGGGA", "relative binding free energy": -0.05},
      {"sequence": "GAGTTCACGTGCAGGT", "relative binding free energy": 0.47},
      {"sequence": "GTGGGCACGTGAACGG", "relative binding free energy": 0.12}
    ]}
  ]
}
